PubChem BioAssay AID463173 (ICCB-Longwood Screening Facility, Harvard Medical School, 2010)
The campaign covered roughly 52,000 compounds. About 4,300 (8.3%) were called active. Cut-off read from the data, not from the text of the source: active = survival mostly below about 52% (no sharp cut-off); inactive = mostly above about 56%. Some of the results follow.

Test system: DeltatarO mutant
Experiment: growth inhibition of S. aureus wild type versus tarO mutant, primary screen, teichoic acid synthesis inhibitors, RN4220, OD600 (AID 463173)
Settings: OD600, 18 h, active compounds read low, screened at 18.75 µg/mL (by protocol)

SMILES | survival
CCOc1cc(CNc2ccc(O)cc2)cc(Br)c1OCc1ccccc1 | active: 3%
Cc1ccc(OCCn2c(-c3ccc(Cl)cc3)nc3ccccc3c2=O)c(C)c1 | inactive: 63%
CCOc1cccc(C2c3c(oc4ccccc4c3=O)C(=O)N2c2nc(C)c(C(=O)OC)s2)c1 (stereo unspecified) | inactive: 51%
O=C(Nc1nnc(S(=O)(=O)N2CCCc3ccccc32)s1)c1ccccc1Br | active: 17%
OC(COCc1ccccc1)CN1CCCC1 (stereo unspecified) | inactive: 113%
CCOc1ccccc1N(C)C(=O)c1nn(-c2ccc(C)cc2)c(=O)c2c1c1ccccc1n2C | inactive: 119%
COc1ccc(-c2cc3nc(C4CCN(C(=O)OC(C)(C)C)CC4)c(C(=O)Nc4cc(Cl)cc(Cl)c4)cn3n2)cc1 | inactive: 67%
COc1ccc(CNC(=O)c2ccc3c(c2)N(Cc2ccccc2)C(=O)c2ccccc2S3(=O)=O)cc1 | inactive: 83%
COc1ccc(-n2c(SCC(=O)N3CCC(C)CC3)nc3c([nH]c4ccccc43)c2=O)cc1 | inactive: 70%
CCc1nnc(SCC(=O)Nc2ccc3c(c2)OCO3)n1CC1CCCO1 (stereo unspecified) | inactive: 66%
COc1ccc(OC)c(NC(=O)c2csnn2)c1 | inactive: 72%
COCCCNC(=O)c1cc(-c2cccnc2)nc2ccccc12 | inactive: 112%
CCOc1ccccc1-c1nnc(SCc2ccc(Cl)cc2)o1 | active: -1%
CCC(=O)N1c2ccccc2CC1C(=O)NCCCN1CCN(c2ccccc2)CC1 (stereo unspecified) | inactive: 74%
CC(=O)N(CCCN1CCOCC1)Cc1ccncc1 | inactive: 81%
Cc1nc(C)c(-c2csc(NCc3ccccc3)n2)s1 | active: 65%
CCC(=O)Nc1ccc(N2CCCCC2)cc1 | inactive: 71%
COC(=O)c1cc2sccc2n1Cc1ccc(F)cc1 | inactive: 124%
CCCCC(=O)Nc1nnc(S(=O)(=O)N2CCCCCC2)s1 | inactive: 77%
Cc1ccc(C)c(CNC(=O)C2CCCCN2S(=O)(=O)c2ccc(F)cc2)c1 (stereo unspecified) | inactive: 112%
Cc1ccc(C)c(N2CCN(C(=O)CN3C(=O)COc4ccc(S(=O)(=O)N5CCOCC5)cc43)CC2)c1 | inactive: 76%
CCOc1ccc(NC(=O)c2cccc(N3CCCS3(=O)=O)c2)cc1 | inactive: 90%
CCN(c1cccc(C)c1)C(CNS(=O)(=O)c1ccccc1)c1ccccc1 (stereo unspecified) | inactive: 100%

SMILES | survival
CSc1ccc(NC(=O)NCCn2cnc3cccnc32)cc1 | inactive: 104%
Cc1cccc(-c2cc(NC(=O)c3ccccc3C)n(-c3ccccc3)n2)c1 | inactive: 80%
COc1ccc(-c2noc(-c3ccccc3OCC(=O)Nc3ccc(C(C)=O)cc3)n2)cc1 | inactive: 57%
O=C(Cn1ncc2c3ccccc3n(Cc3ccccc3)c2c1=O)N1CCCCCC1 | inactive: 82%
O=C(NC(c1ccccc1)c1ccccc1)C1CCCO1 (stereo unspecified) | inactive: 99%
CCc1cccc(NC(=O)Cn2c(C(=O)OC)cc3occc32)c1 | inactive: 92%
CC(C)OC(=O)CN1CCN(C2CCCCC2)CC1 | inactive: 89%
COCCCn1c(SCc2ccccc2F)nc2c(sc3ccccc32)c1=O | inactive: 77%
COc1ccccc1NC(=O)Cn1c(=O)n(-c2ccccc2Cl)c(=O)c2sc3ccccc3c21 | inactive: 77%
c1nc(N2CCCC2)c2c3c(sc2n1)CCC3 | inactive: 70%
Cc1ccc(C)c(NC(=O)c2cc(S(=O)(=O)N3CCc4ccccc4C3)ccc2F)c1 | inactive: 55%
COc1ccccc1CNC(=O)c1cc2sccc2n1Cc1ccc(F)cc1 | inactive: 108%
COc1ccc(CN(Cc2nc3ccccc3c(=O)[nH]2)C(=O)NCc2ccccc2)cc1 | inactive: 79%
CCCS(=O)(=O)c1c(S(=O)(=O)CCC)c2cc(C(C)(C)C)ccn2c1C(=O)c1ccc(OC)c(OC)c1 | inactive: 124%
COc1ccc(C2C=C(c3ccc(C)cc3)Nc3c(C(=O)Nc4ccccc4)cnn32)cc1 (stereo unspecified) | active: 53%
COc1ccc(Br)cc1CNC(=O)CCCn1c(=O)c2cccn2c2cccnc21 | inactive: 106%
COc1cc(NC(=O)Cn2c(C)cc(C)c(C#N)c2=O)cc(OC)c1 | inactive: 96%
CCn1cc(C(=O)NCCc2ccc(Cl)cc2)c(=O)c2cc(S(=O)(=O)N3CCOCC3)ccc21 | inactive: 80%
Cc1cccc2cc(CN(C(=O)c3ccco3)C3CCCC3)c(=O)[nH]c12 | inactive: 51%
C=CCn1c(C(CC)CC(C)(C)O)n[nH]c1=S (stereo unspecified) | inactive: 103%
CCOC(=O)c1[nH]c2ccccc2c1NC(=O)c1cc(Cl)ccc1Cl | inactive: 67%
CCN(CC)S(=O)(=O)c1ccc2c(c1)N(CC(=O)Nc1ccc(F)cc1F)C(=O)C1CCCN21 (stereo unspecified) | inactive: 76%
COc1ccc(CNC(=O)CCCCCn2c(=O)[nH]c3ccccc3c2=O)cc1 | inactive: 86%

SMILES | survival
Cc1cc(C)c2oc(-c3ccc(NC(=O)c4cc(Br)ccc4Cl)cc3)nc2c1 | inactive: 89%
COc1cccc2cc(C(=O)Nc3ccc(S(=O)(=O)N4CCOCC4)cc3)c(=O)oc12 | inactive: 99%
Cc1ccc(NC(=O)CCc2nc3cccnc3n2-c2ccccc2)cc1 | inactive: 80%
O=C(Cn1c(=O)n(Cc2ccc(C(=O)NCc3ccccc3Cl)cc2)c(=O)c2ccccc21)Nc1ccc(F)cc1 | inactive: 89%
Cc1coc2cc3oc(=O)c(CC(=O)NCCc4ccccc4F)c(C)c3cc12 | inactive: 83%
CC(C)(C)C(=O)Nc1ccc(Cl)c(-c2nc3ccccc3[nH]2)c1 | inactive: 44%
O=C(CC(c1cccs1)N1Cc2ccccc2C1=O)Nc1ccc(Cl)cc1 (stereo unspecified) | inactive: 131%
COc1ccccc1Cc1nc2ccccc2nc1SCC(=O)NCc1ccc(F)cc1 | inactive: 75%
NC(=O)CSc1nnc(COc2ccccc2)n1C1CCCCC1 | inactive: 84%
CCCC(C(=O)NC1CCCC1)N(C(=O)Cn1nnc(-c2ccc(C)o2)n1)C1CCCC1 (stereo unspecified) | inactive: 57%
COc1ccccc1Nc1nc2c(S(=O)(=O)c3ccc(C(C)C)cc3)nnn2c2ccsc12 | inactive: 93%
Cc1ccc2c(=O)cc(C(=O)Nc3ccc(S(=O)(=O)N4CCCCC4)cc3)oc2c1C | inactive: 90%
Cc1cccc(N2CCN(c3ncnc4onc(-c5ccc(F)cc5)c34)CC2C)c1 (stereo unspecified) | inactive: 77%
CCOc1ccc2nc(Cl)c(C3CC(c4ccc(C)cc4)=NN3C(=O)CCCC(=O)O)cc2c1 (stereo unspecified) | inactive: 53%
COc1ccccc1C1C(C(N)=O)=C(C)Nc2nc(SCc3ccccc3F)nn21 (stereo unspecified) | inactive: 76%
Cc1c(C(=O)N(C)C)sc2c1c(=O)n(-c1ccc(Cl)c(Cl)c1)c(=O)n2Cc1ccc(F)cc1 | inactive: 105%
O=C(Nc1cccc(C(=O)OCc2cc(=O)n3nc(C4CC4)sc3n2)c1)c1ccc(F)cc1 | inactive: 70%
CC(=O)c1ccc(S(=O)(=O)N2CCC(Oc3ccc(-n4cnnn4)cc3)CC2)cc1 | inactive: 81%
COc1ccc(S(=O)(=O)Nc2ccc(O)c(Sc3nc4ccccc4s3)c2)cc1 | inactive: 98%
CCc1ccc(NC(=O)CN2C(=O)C(=O)c3ccccc32)cc1 | inactive: 79%
O=C(Nc1cccc(Cl)c1)N1Cc2ccccc2Oc2ncccc21 | inactive: 112%
CCCC(=O)NC1CC(=O)N(c2ccc3c(c2)OCCO3)C1 (stereo unspecified) | inactive: 90%
CCn1cc(C(=O)N(C)Cc2ccccc2)c(=O)c2cc(S(=O)(=O)N3CCCCC3)ccc21 | inactive: 91%

SMILES | survival
Cc1cccc(N2CCN(C(=O)Cn3nc(C)c4sc5ccccc5c4c3=O)CC2C)c1 (stereo unspecified) | inactive: 98%
COc1ccc(-c2onc(C)c2C)cc1S(=O)(=O)NC1CCCCC1 | inactive: 72%
CCOc1ccccc1NC(=O)c1ccc2oc(=O)c(S(=O)(=O)c3ccc(F)cc3)cc2c1 | inactive: 67%
CN(C(=O)CSc1nc2ccc(NC(=O)c3ccc(F)cc3)cc2s1)c1ccccc1 | inactive: 64%
O=C(Nc1ccccn1)C1(c2ccccc2)CCCC1 | inactive: 93%
Cc1ccccc1CCNC(=O)c1cc2ccccn2n1 | inactive: 82%
CCOCCn1ccc2c(OCC(=O)Nc3cc(C(F)(F)F)ccc3Cl)cccc2c1=O | inactive: 102%
COc1ccccc1Cn1c(CNS(=O)(=O)c2c(C)cc(C)cc2C)nc2cccnc21 | inactive: 126%
COc1ccccc1C/C(N)=N/OC(=O)c1ccccc1 | inactive: 71%
CCOC(=O)c1cccc(NC(=O)CCc2c(C)nc3c4cccnc4nn3c2C)c1 | inactive: 100%
CCOC(=O)Cn1nc(N2CCN(c3ccc(F)cc3)CC2)ccc1=O | inactive: 78%
COC(=O)C1=C(c2ccccc2)c2ccccc2S(=O)(=O)N1CC(=O)Nc1cc(C)ccc1C | inactive: 58%
Cc1ccc(CN2C(=O)C3(SCC(=O)N3c3ccc(C)c(C)c3)c3ccccc32)cc1 (stereo unspecified) | inactive: 99%
Cc1cccc(N2CCN(c3c(CN4CCCC4)c(=O)oc4ccccc34)CC2)c1C | inactive: 87%
CSc1ccc(Nc2nn(-c3ccc(OC(F)(F)F)cc3)nc2C(C)=O)cc1 | inactive: 86%
Cc1c(C(=O)N2CCOCC2)oc2c1-c1nn(CC(=O)NCc3ccccc3)cc1CC2 | inactive: 79%
C=CCNC(=O)Nc1ccc2oc(C)nc2c1 | inactive: 103%
Nc1c2c(nc3c1CCC3)CCCC2 | inactive: 87%
COCCNC(=O)C(=O)Nc1ccc2nc3n(c(=O)c2c1)CCCCC3 | inactive: 97%
C=Cc1ccc(Cn2c(C(=O)O)c(CNCc3cc(OC)ccc3OC)c3ccc(C)cc32)cc1 | inactive: 88%
COc1ccc(-c2nc(C)c(CCNC(=O)c3cccc(C)c3)s2)cc1OC | inactive: 86%
COc1ccc(CCNC(=O)C(C)n2nc(C)c3sc4ccccc4c3c2=O)cc1OC (stereo unspecified) | inactive: 110%
